Data published in a collection of fitness landscapes (doi:10.1126/science.1257360).
The list shows a part of the results.

B1: PhoQ; a variant is named by its letters at X, in order, P23837 (parent)
chain: MKKLLRLFFPLSLRVRFLLATAAVVLVLSLAYGMVALIGYSVSFDKTTFRLLRGESNLFYTLAKWENNKLHVELPENIDKQSPTMTLIYDENGQLLWAQRDVPWLMKMIQPDWLKSNGFHEIEADVNDTSLLLSGDHSIQQQLQEVREDDDDAEMTHSVAVNVYPATSRMPKLTIVVVDTIPVELKSSYMVWSWFIYVLSANLLLVIPLLWVAAWWSLRPIEALAKEVRELEEHNRELLNPATTRELTSLVRNLNRLLKSERERYDKYRTTLTDLTHSLKTPLXXLQXXLRSLRSEKMSVSDAEPVMLEQISRISQQIGYYLHRASMRGGTLLSRELHPVAPLLDNLTSALNKVYQRKGVNISLDISPEISFVGEQNDFVEVMGNVLDNACKYCLEFVEISARQTDEHLYIVVEDDGPGIPLSKREVIFDRGQRVDTLRPGQGVGLAVAREITEQYEGKIVAGESMLGGARMEVIFGRQHSAPKDE

Variants of: B1
Assay: enrichment ratio after two sorts for PhoP signalling (ratio (wild type AVST 3.29)); higher = more functional
Conditions: with PhoP (E. coli)

Row | Variant | enrichment ratio
1 | LQAR | ≤ 0.25
2 | YFNA | ≤ 0.25
3 | KVRD | ≤ 0.25
4 | DVKD | ≤ 0.25
5 | QMKY | ≤ 0.25
6 | SNGN | 4.56
7 | SFFD | ≤ 0.25
8 | YIKF | ≤ 0.25
9 | HHRE | ≤ 0.25
10 | KQDC | ≤ 0.25
11 | VANA | ≤ 0.25
12 | PTVF | ≤ 0.25
13 | NTCY | ≤ 0.25
14 | IYYP | ≤ 0.25
15 | HYFH | ≤ 0.25
16 | KTCQ | ≤ 0.25
17 | AFQE | ≤ 0.25
18 | YMVG | 0.44
19 | SRPR | ≤ 0.25
20 | YFDW | ≤ 0.25
21 | QRHV | ≤ 0.25
22 | DYIV | ≤ 0.25
23 | FWRF | ≤ 0.25
24 | HQSQ | ≤ 0.25

Row | Variant | enrichment ratio
25 | HQNV | ≤ 0.25
26 | NRQA | ≤ 0.25
27 | RFAS | ≤ 0.25
28 | VKAQ | ≤ 0.25
29 | RHWI | ≤ 0.25
30 | QYYL | ≤ 0.25
31 | EIVY | ≤ 0.25
32 | QGCE | ≤ 0.25
33 | LQQI | ≤ 0.25
34 | TKNV | ≤ 0.25
35 | YDKI | ≤ 0.25
36 | LVPT | ≤ 0.25
37 | HVAL | ≤ 0.25
38 | RCHK | ≤ 0.25
39 | DQRI | ≤ 0.25
40 | TCLW | ≤ 0.25
41 | HWSN | ≤ 0.25
42 | TGNW | ≤ 0.25
43 | KYPS | ≤ 0.25
44 | HWYY | ≤ 0.25
45 | PHSM | ≤ 0.25
46 | IFWG | ≤ 0.25
47 | QPKV | ≤ 0.25
48 | MRWP | ≤ 0.25

Row | Variant | enrichment ratio
49 | ENPW | ≤ 0.25
50 | PQNT | ≤ 0.25
51 | NLDE | ≤ 0.25
52 | IKKL | ≤ 0.25
53 | PGCM | ≤ 0.25
54 | DLQH | ≤ 0.25
55 | MLDP | ≤ 0.25
56 | KRVY | ≤ 0.25
57 | RIRY | ≤ 0.25
58 | NRLC | ≤ 0.25
59 | PNRR | ≤ 0.25
60 | PVKQ | ≤ 0.25
61 | NLCR | ≤ 0.25
62 | GHRR | ≤ 0.25
63 | SIDG | ≤ 0.25
64 | SMID | ≤ 0.25
65 | ANWF | ≤ 0.25
66 | WDVP | ≤ 0.25
67 | AIII | 1.5
68 | HNQP | ≤ 0.25
69 | IGHY | ≤ 0.25
70 | KPPP | ≤ 0.25
71 | NKWA | ≤ 0.25
72 | SGHQ | ≤ 0.25

Row | Variant | enrichment ratio
73 | NRMH | ≤ 0.25
74 | WTVC | ≤ 0.25
75 | IDTS | ≤ 0.25
76 | PGDW | ≤ 0.25
77 | SSVY | 8.85
78 | GELL | 12.9
79 | QYVQ | ≤ 0.25
80 | AHDC | ≤ 0.25
81 | KEPW | ≤ 0.25
82 | IGMR | ≤ 0.25
83 | GGFW | ≤ 0.25
84 | SQYE | ≤ 0.25
85 | DEQG | ≤ 0.25
86 | MNEQ | ≤ 0.25
87 | NNNV | ≤ 0.25
88 | VIQM | ≤ 0.25
89 | FNYD | ≤ 0.25
90 | MFIW | ≤ 0.25
91 | IGGV | ≤ 0.25
92 | QRLM | ≤ 0.25
93 | FQII | ≤ 0.25
94 | WSFH | ≤ 0.25
95 | HMWI | ≤ 0.25
96 | MERK | ≤ 0.25

Row | Variant | enrichment ratio
97 | YPCM | ≤ 0.25
98 | FMRM | ≤ 0.25
99 | NLFV | ≤ 0.25
100 | WYTY | ≤ 0.25
101 | MCCV | ≤ 0.25
102 | IHRV | ≤ 0.25
103 | DPIQ | ≤ 0.25
104 | FYFS | ≤ 0.25
105 | MQFG | 3.71
106 | GFRA | ≤ 0.25
107 | LRMK | ≤ 0.25
108 | SCNI | ≤ 0.25
109 | QLKK | ≤ 0.25
110 | GCGE | ≤ 0.25
111 | FGEA | ≤ 0.25
112 | HDPF | ≤ 0.25
113 | IRAS | ≤ 0.25
114 | SLWL | ≤ 0.25
115 | LNTE | ≤ 0.25
116 | SGAS | 7.47
117 | KKHY | ≤ 0.25
118 | KNLK | ≤ 0.25
119 | VVYL | ≤ 0.25
120 | AQRE | ≤ 0.25

Row | Variant | enrichment ratio
121 | GSPI | ≤ 0.25
122 | WCFY | ≤ 0.25
123 | SVCF | 4.45
124 | VVAC | ≤ 0.25
125 | WRAD | ≤ 0.25
126 | AKGG | ≤ 0.25
127 | QRMG | ≤ 0.25
128 | TYEA | ≤ 0.25
129 | MVNG | ≤ 0.25
130 | KYSK | ≤ 0.25
131 | LWMW | ≤ 0.25
132 | GFPH | ≤ 0.25
133 | GRCI | ≤ 0.25
134 | LPCV | ≤ 0.25
135 | FTVH | ≤ 0.25
136 | GFRQ | ≤ 0.25
137 | IAFG | ≤ 0.25
138 | AMFR | ≤ 0.25
139 | VIAT | ≤ 0.25
140 | FWDY | ≤ 0.25
141 | RKCI | ≤ 0.25
142 | MMGD | ≤ 0.25
143 | WQYV | ≤ 0.25
144 | MYYF | ≤ 0.25

Row | Variant | enrichment ratio
145 | ALNR | ≤ 0.25
146 | PCHS | ≤ 0.25
147 | AKMS | 3.84
148 | NDQY | ≤ 0.25
149 | FELL | 5.65
150 | QADQ | 6.93
151 | RRDA | ≤ 0.25
152 | MRTH | ≤ 0.25
153 | SHRI | ≤ 0.25
154 | TNST | 12.6
155 | GWKN | ≤ 0.25
156 | TLMS | 1.83
157 | SISC | 8.77
158 | FLVC | ≤ 0.25
159 | TTSE | 5.44
160 | KPLD | ≤ 0.25
161 | NGQP | ≤ 0.25
162 | LDHA | ≤ 0.25
163 | DHEN | ≤ 0.25
164 | KNNS | ≤ 0.25
165 | TFTY | ≤ 0.25
166 | RMWN | ≤ 0.25
167 | ARTC | ≤ 0.25
168 | FEIC | 9.92

Row | Variant | enrichment ratio
169 | GGCN | 0.54
170 | TCDH | 0.414
171 | KEGW | ≤ 0.25
172 | KFQV | ≤ 0.25
173 | PVNY | ≤ 0.25
174 | NRMW | ≤ 0.25
175 | RVWL | ≤ 0.25
176 | TWWE | ≤ 0.25
177 | HMAK | ≤ 0.25
178 | FLRR | ≤ 0.25
179 | SMAN | 6.01
180 | HLFS | ≤ 0.25
181 | DRML | ≤ 0.25
182 | QTDL | 9.92
183 | TDYF | 0.575
184 | NNGS | ≤ 0.25
185 | QPTM | ≤ 0.25
186 | PGST | ≤ 0.25
187 | MFST | ≤ 0.25
188 | FVYL | ≤ 0.25
189 | CELD | ≤ 0.25
190 | FPPL | ≤ 0.25
191 | NAVA | ≤ 0.25
192 | SWSH | ≤ 0.25

Row | Variant | enrichment ratio
193 | SNSN | 12.5
194 | HHNK | ≤ 0.25
195 | MELM | 17.7
196 | EQPD | ≤ 0.25
197 | TWIN | ≤ 0.25
198 | WPVI | ≤ 0.25
199 | SWNQ | ≤ 0.25
200 | VSHY | ≤ 0.25
201 | KHND | ≤ 0.25
202 | KSFK | ≤ 0.25
203 | VILC | 0.339
204 | WLID | ≤ 0.25
205 | HFTP | ≤ 0.25
206 | EIAG | ≤ 0.25
207 | SQPT | ≤ 0.25
208 | QGCL | 1.15
209 | QRRM | ≤ 0.25
210 | INKP | ≤ 0.25
211 | QRDY | ≤ 0.25
212 | IRAH | ≤ 0.25
213 | YFDG | ≤ 0.25
214 | KQPQ | ≤ 0.25
215 | FMYA | ≤ 0.25
216 | SWVS | ≤ 0.25

Row | Variant | enrichment ratio
217 | QHTT | ≤ 0.25
218 | YQGT | ≤ 0.25
219 | NPKY | ≤ 0.25
220 | PWAP | ≤ 0.25
221 | IPWG | ≤ 0.25
222 | AMSK | 9.12
223 | PSMK | ≤ 0.25
224 | VKNQ | ≤ 0.25
225 | TTIY | ≤ 0.25
226 | LLSC | ≤ 0.25
227 | KFNQ | ≤ 0.25
228 | QKGY | ≤ 0.25
229 | IFFH | ≤ 0.25
230 | INMF | ≤ 0.25
231 | SSQV | 11.1
232 | MRAI | ≤ 0.25
233 | DTYH | ≤ 0.25
234 | TNNT | ≤ 0.25
235 | PTDI | ≤ 0.25
236 | LRTM | ≤ 0.25
237 | FLFA | 0.339
238 | FGVT | ≤ 0.25
239 | DPMD | ≤ 0.25
240 | SPFH | ≤ 0.25

Row | Variant | enrichment ratio
241 | IAGW | ≤ 0.25
242 | LHVT | ≤ 0.25
243 | GDCQ | ≤ 0.25
244 | LCAA | ≤ 0.25
245 | MWVV | ≤ 0.25
246 | QCMI | ≤ 0.25
247 | PHRN | ≤ 0.25
248 | GWMH | ≤ 0.25
249 | ANCM | 6.06
250 | HRFR | ≤ 0.25
251 | DITL | ≤ 0.25
252 | TSYF | 6.56
253 | QPMI | ≤ 0.25
254 | QSMQ | ≤ 0.25
255 | MLFT | ≤ 0.25
256 | HKVW | ≤ 0.25
257 | NQQF | ≤ 0.25
258 | FRYS | ≤ 0.25
259 | FARA | ≤ 0.25
260 | FIFN | ≤ 0.25
261 | GGSA | 4.05
262 | YMGT | ≤ 0.25
263 | PDCW | ≤ 0.25
264 | IFYL | ≤ 0.25

Row | Variant | enrichment ratio
265 | SLYA | ≤ 0.25
266 | WTWQ | ≤ 0.25
267 | AIMW | ≤ 0.25
268 | FWLT | ≤ 0.25
269 | VISK | ≤ 0.25
270 | NKKK | ≤ 0.25
271 | EYVP | ≤ 0.25
272 | VDWQ | ≤ 0.25
273 | TFHC | ≤ 0.25
274 | FPHY | ≤ 0.25
275 | LQRK | ≤ 0.25
276 | CCFF | ≤ 0.25
277 | IFSY | ≤ 0.25
278 | IGPD | ≤ 0.25
279 | DCNS | ≤ 0.25
280 | SWYV | ≤ 0.25
281 | SGIR | ≤ 0.25
282 | GLCY | 4.82
283 | NKTR | ≤ 0.25
284 | RWVY | ≤ 0.25
285 | EMVS | ≤ 0.25
286 | TLAP | 0.342
287 | ICYN | ≤ 0.25
288 | VFAR | ≤ 0.25

Row | Variant | enrichment ratio
289 | ESAA | ≤ 0.25
290 | MITL | 2.48
291 | FLAY | ≤ 0.25
292 | WELN | ≤ 0.25
293 | RGHG | ≤ 0.25
294 | PVAL | ≤ 0.25
295 | LPGW | ≤ 0.25
296 | LGFK | ≤ 0.25
297 | ILID | ≤ 0.25
298 | LINF | 0.298
299 | DPHC | ≤ 0.25
300 | NNKI | ≤ 0.25
301 | GWMV | ≤ 0.25
302 | MERS | ≤ 0.25
303 | YAKQ | ≤ 0.25
304 | MMVV | ≤ 0.25
305 | GRPS | ≤ 0.25
306 | IQDT | ≤ 0.25
